# Experimental data taken from paper PMC7819943, “Rice protein-binding microarrays: a tool to detect cis-acting elements near promoter regions in rice”.
# This is one part of the list.
# Target: T1, OsWOX13 (Oryza sativa, UniProt Q5QMM3 1-267)
# T1 sequence: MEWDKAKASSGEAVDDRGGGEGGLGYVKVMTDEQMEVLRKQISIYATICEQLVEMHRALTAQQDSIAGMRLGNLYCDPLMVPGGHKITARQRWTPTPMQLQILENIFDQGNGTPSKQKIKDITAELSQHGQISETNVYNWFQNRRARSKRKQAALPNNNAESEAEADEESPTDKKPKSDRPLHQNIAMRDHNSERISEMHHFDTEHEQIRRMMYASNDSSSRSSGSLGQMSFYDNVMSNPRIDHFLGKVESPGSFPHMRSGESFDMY
# Assay: protein-binding microarray (RPBM); PBS, 2% BSA, 51.3 ng/ul salmon testes DNA, 50 uM zinc acetate, 200 nM TF, 25 C, 1 h; high values mean tight binding
# Settings: protein: recombinant; tags: N-terminal polyhistidine and DsRed monomer fusion (pET32a); label: CyDye5-dUTP incorporated in the synthesized complementary strand; 3' TTTTT single-stranded linker to array surface; dsDNA, one strand shown
# How it was run: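 Binding signal here means per-feature fluorescence intensity in arbitrary units. The values were read on an Axon 4000B scanner after a custom Agilent array, double-stranded by primer extension with Cy5-dUTP, was incubated with 200 nM protein at 25 °C for 1 h in PBS with 2% BSA, salmon testes DNA and 50 µM zinc acetate, then washed. The proteins were transcription factors with an N-terminal polyhistidine tag and DsRed, expressed in E. coli BL21-CodonPlus and purified on Ni–NTA.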
row,Sequence,binding signal
1,GTCAGATTGATAACGCATGCAATGGCCGTTGGATCGCTGCCGGAGTCACCTAGTGCAG,45700 fluorescence intensity (a.u.)
2,TTGTGAAGGTAATTAAAGGAATTTATCAATTGTGTTGACGCGGAGTCACCTAGTGCAG,5510 fluorescence intensity (a.u.)
3,CACTAATCACTAATCACTCACTCACTCTCACTCTCGCTCCCGGAGTCACCTAGTGCAG,30400 fluorescence intensity (a.u.)
4,ATTGAATAATCAAAATTTCAATCTTTGATCGATGAGGTATCGGAGTCACCTAGTGCAG,12100 fluorescence intensity (a.u.)
5,CAACCTTAAATTACCAAATCTGGTTGCACGAAAATATAAGCGGAGTCACCTAGTGCAG,3920 fluorescence intensity (a.u.)
6,AGATCGAATCAATCATACAGGAAAGGTGCCTAACGAACCCCGGAGTCACCTAGTGCAG,5510 fluorescence intensity (a.u.)
7,TGTCACATCAATCATCTCCAATTTAGGGCTTATTCGGAATCGGAGTCACCTAGTGCAG,31000 fluorescence intensity (a.u.)
8,GTTAAACTTGGTTAATTGTGGTGTGTATAATTTGTTAGGTCGGAGTCACCTAGTGCAG,14300 fluorescence intensity (a.u.)
9,ATGATTTGATGAAGAGGCCGGCTGTGAAGAGGGTGAGAGACGGAGTCACCTAGTGCAG,12700 fluorescence intensity (a.u.)
10,GCCTACAATTAATAGATCTGTTTATTTAATGGAGTAGACGCGGAGTCACCTAGTGCAG,14000 fluorescence intensity (a.u.)
11,AAAATAATTTTGAAATGAGATATCACGTTCGCTGTGGATGCGGAGTCACCTAGTGCAG,12400 fluorescence intensity (a.u.)
12,AGGTTAATTTCTCCTCATCCTCCTTTGTTGAGCTCCAAGCCGGAGTCACCTAGTGCAG,17100 fluorescence intensity (a.u.)
13,AGTAGTTAATTAGAACACTGAATATATTAGCTGTGCTAAGCGGAGTCACCTAGTGCAG,14500 fluorescence intensity (a.u.)
14,TATATATTGACTACCCAGTTGCACTTTAAATTATGGATAGCGGAGTCACCTAGTGCAG,3860 fluorescence intensity (a.u.)
15,ATGATTTACATTATGAAACGGAGGGAGTAGCATGCAAAAGCGGAGTCACCTAGTGCAG,24000 fluorescence intensity (a.u.)
16,ATCCCAGCTTAATTGACCCTATGATCTGACGCCCTTCTCCCGGAGTCACCTAGTGCAG,22500 fluorescence intensity (a.u.)
17,TTATAAATTTGAATACCAAATCCAGTTTTCTTGTGGAAGTCGGAGTCACCTAGTGCAG,9550 fluorescence intensity (a.u.)
18,ATATATATTAGCTATTAAATTGACTAGATTATTTAGAGGGCGGAGTCACCTAGTGCAG,27300 fluorescence intensity (a.u.)
19,ATGGCTGATTGCTGGATGATCATAGATAGCTGCAGGAGATCGGAGTCACCTAGTGCAG,30500 fluorescence intensity (a.u.)
20,CACTATCTGATCCTAATTACACACTGATGCAGGGGTAAATCGGAGTCACCTAGTGCAG,3790 fluorescence intensity (a.u.)
21,AAGTTGATGAGCTTGATGCACCCGTAGAAATCCATCCCCGCGGAGTCACCTAGTGCAG,9150 fluorescence intensity (a.u.)

row,Sequence,binding signal
1,AGTGTTTATTGTCTATTTGGTTTGGAGCTAAATTTTGGCACGGAGTCACCTAGTGCAG,3720 fluorescence intensity (a.u.)
2,TTTGATTGTTTGTTTTAGAATGTGATCTTCATCAAATCATCGGAGTCACCTAGTGCAG,41300 fluorescence intensity (a.u.)
3,ACCGTGGATTGACGCGAGGGCGGTGCAGGGAACCCGGGGCCGGAGTCACCTAGTGCAG,17800 fluorescence intensity (a.u.)
4,CAAATTAAACAATTATCAGTTGAAGTAGAAGCTGGAATAGCGGAGTCACCTAGTGCAG,9170 fluorescence intensity (a.u.)
5,TATAAAATGATTTTCATGATAAATCTATCGATGCGGTTTTCGGAGTCACCTAGTGCAG,14900 fluorescence intensity (a.u.)
6,TTTTAATTGAAGTACAGCGATATTTACCAAATTTCGATCACGGAGTCACCTAGTGCAG,33600 fluorescence intensity (a.u.)
7,ATGAATGACAGTCATACTTGTGTTGAGTGCTAATCTGTCTCGGAGTCACCTAGTGCAG,10700 fluorescence intensity (a.u.)
8,ATAATTAAATGGGTCCCATTTATCAATCAAAATAATGCCACGGAGTCACCTAGTGCAG,35000 fluorescence intensity (a.u.)
9,TCCTCTCAAATTAAACTCCCAAATTAATTAAAGAGAAGCACGGAGTCACCTAGTGCAG,7860 fluorescence intensity (a.u.)
10,CTGATTTGCTTGATTCAGATTGACAGCTCAATGCAAAACTCGGAGTCACCTAGTGCAG,44300 fluorescence intensity (a.u.)
11,CCAGCCATTTAGTCGTTAAATTAGAGATTAGAGAGTAGAGCGGAGTCACCTAGTGCAG,4810 fluorescence intensity (a.u.)
12,AATAAATAAAACTCAATCAATCATACGATAATACCATCTCCGGAGTCACCTAGTGCAG,29700 fluorescence intensity (a.u.)
13,TTGTAATTAGTGTATGTTTAATACTCTAAATTAGTGTCCACGGAGTCACCTAGTGCAG,32500 fluorescence intensity (a.u.)
14,GTTCAAATTTGTAGTAATAGATTATGTCATATCCAATACTCGGAGTCACCTAGTGCAG,18700 fluorescence intensity (a.u.)
15,CCGCAAATTGCGTATTTCAAGCGGTTTCTGATTTGCCTTTCGGAGTCACCTAGTGCAG,14700 fluorescence intensity (a.u.)
16,ACCAAAATTGGAAGTTTGGTTGAAATTGGGACGATGAACGCGGAGTCACCTAGTGCAG,10500 fluorescence intensity (a.u.)
17,GTATATAAAATTTTATTCACAAATTAGTTTTCGTTTGCAACGGAGTCACCTAGTGCAG,3910 fluorescence intensity (a.u.)
18,GCCTTAACTCGCATCATCAAGTCACTCATCAAGCGAAGCACGGAGTCACCTAGTGCAG,4780 fluorescence intensity (a.u.)
19,GTATCTTAATGATTTGTTTAAAATATTACTAGTATCTTAACGGAGTCACCTAGTGCAG,8280 fluorescence intensity (a.u.)
20,GTAATTAGCTAATCAATCTTTTCGGCTGTGCTTAATTAACCGGAGTCACCTAGTGCAG,33500 fluorescence intensity (a.u.)
21,ATCTGCAATCAAATCAACGCTATATATGCACCGAGACACACGGAGTCACCTAGTGCAG,10300 fluorescence intensity (a.u.)
